# This is one part of the list.
# System: T1, C. trachomatis L2/434/Bu expressing GFP (CTL2-GFP)
# T1 construct: L2/434/Bu GFP intracellular growth in HeLa cells
# Parameters: species or system HeLa; C. trachomatis total inclusion area by high-content imaging, normalised to DMSO
# Conditions: total inclusion area; 28.5 h, 10 µM; inhibitor
# Method in brief: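 Host cell viability was gauged from Hoechst-stained nuclei counts, while chlamydial growth was taken from total inclusion area and inclusion number per well. Cells were fixed and imaged by high-content microscopy once bulk GFP and resorufin fluorescence had been measured.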
row,Compound,% of control remaining
1,COc1cc(-c2ccc(C(=O)N(C)CCN(C)C)c(N(C)C)n2)cc(OC)c1OC [CBK106076],74.1371
2,N#CCCn1cc(C(=O)N2CCOCC2)c(-c2cc3ccccc3o2)n1 [CBK306203],43.6883
3,CN(C)c1cccc(Nc2ccc(-c3ccc(CCC(=O)O)cc3)cn2)c1 [CBK036918],124.289
4,CC(C)C(NC(=O)C(C)(C)Oc1ccc(Cl)cc1)C(=O)O (stereo not shown) [CBK266138],112.038
5,CCCCC1CCC(C(=O)Nc2ncccn2)CC1 (stereo not shown) [CBK027423],90.547
6,CC(=O)Nc1ccc(CCOc2nccnc2-c2ccccc2)cc1 [CBK106683],95.1109
7,CS(=O)(=O)N1CCc2cc(S(=O)(=O)N3CCN(c4ccc([N+](=O)[O-])c(NCc5ccccc5)c4)CC3)ccc21 [CBK268311],88.4862
8,COc1cc(C)c(Nc2cccc(-c3ccsc3)n2)cc1OC [CBK037025],65.6134
9,Cn1ccnc1C1(O)CCN(C(=O)c2ccc(F)cc2F)CC1 [CBK283552],44.6026
10,Nc1nonc1C(=O)NCCNc1ccc([N+](=O)[O-])cn1 [CBK268279],100.996
11,COc1cc(C(=O)NCC(=O)O)cc(Cl)c1OCC(C)C [CBK297485],85.3391
12,COc1cc(C(=O)N2CCCC3(CCN(C(=O)c4cc(F)c(F)cc4F)C3)C2)cc(OC)c1OC (stereo not shown) [CBK131563],85.1099
13,Cc1cc(C(=O)N2CCN(c3ncccn3)CC2)n[nH]1 [CBK144526],100.466
14,O=C(NC1CCNC1)c1cccc(S(=O)(=O)NCc2ccsc2)c1 (stereo not shown) [CBK306706],112.545
15,CCCNC(=O)Cn1c(=O)n(Cc2cccs2)c2ncccc21 [CBK283843],80.1287
16,COc1cc2c3c(cccc3c1)CC(C)(N(C)C)C2 (stereo not shown) [CBK024357C],91.3266
17,Cn1cc(-c2ccccc2CN2CCCC2)c2onc(-c3ccccc3)c2c1=O [CBK036319C],111.182
18,CCCn1c(=O)c(Cc2ccccc2)c(O)c2ccccc21 [CBK291175],99.4647
19,NS(=O)(=O)c1ccc(Cl)c(Cl)c1 [CBK015652],90.1269
20,Cc1nc(N)c(CNC2CCCCC2)c(O)n1 [CBK019809],20.6868
21,NS(=O)(=O)c1ccccc1Sc1ccccc1 [CBK020524],28.8082

row,Compound,% of control remaining
1,O=C(NC1CC1)c1nn(-c2ncccn2)c2ccccc12 [CBK048508],102.199
2,Cc1ccc(S(=O)(=O)Nc2sccc2C(=O)N2CCN(C)CC2)cc1 [CBK042264],95.718
3,Cc1ccc2[nH]c(-c3cccc(NC(=O)c4cccc(CN5CCCC5=O)c4)c3)nc2c1 [CBK285838],43.8188
4,Cc1cc(C)cc(C(O)CNC2CCN(Cc3cscn3)CC2)c1 (stereo not shown) [CBK304457],34.8248
5,CCOc1c(Br)cc(CNc2nc[nH]n2)cc1OC [CBK268009],108.108
6,c1ccc(-c2ccccc2CN2CCN(c3nccnc3OCCN3CCOCC3)CC2)cc1 [CBK082893T],85.0309
7,CCn1c(SCc2nc(-c3ccc(Br)cc3)no2)nnc1-c1c[nH]c2ccccc12 [CBK268668],114.149
8,O=C(O)CNC(=O)CCS(=O)(=O)c1ccc(F)cc1 [CBK286580],78.2391
9,O=C(CCc1cc(F)ccc1F)NCCCn1nc2n(c1=O)CCCC2 [CBK305782],28.3499
10,CC(C)Nc1cc(SCc2ccc(Cl)c(Cl)c2)ncn1 [CBK103665],66.6087
11,Cc1nnc(SCC(=O)NNC(=O)c2cccs2)[nH]1 [CBK266879],78.17
12,CC(NC(=O)c1cccc(Oc2ccccc2)c1)c1ccncc1 (stereo not shown) [CBK270327],94.5414
13,COc1cc(Nc2nc(-c3c(OC)cccc3OC)cn3ccnc23)cc(OC)c1OC [CBK037395],95.9318
14,Cc1ccc(C(NC(=O)Cn2ccnc2)c2ccncc2)cc1C (stereo not shown) [CBK281591],75.2093
15,O=C(/C=C/c1cccnc1)Nc1cccc(N2CCNCC2)c1 [CBK034128T],74.0687
16,O=C(NCCN1CCCCC1)C1CC(=O)N(Cc2ccco2)C1 (stereo not shown) [CBK304877],120.983
17,Nc1nc2c(s1)c(=O)[nH]c(=O)n2-c1ccc(Cl)cc1 [CBK269891],73.4575
18,Cc1cc(N2CCCC(COc3ccccc3F)C2)nc(N)n1 (stereo not shown) [CBK306714],5.649
19,O=C(CCCCCN1C(=O)c2ccccc2C1=O)Nc1cccc(C(=O)O)c1 [CBK287261],54.4439
20,CS(=O)(=O)c1ccc(-n2cc(CN3CCC(Sc4ccccc4)CC3)nn2)cc1 [CBK149468],101.207
21,O=C(CN1CCc2c([nH]c3ccccc23)C12CCN(Cc1ccc(F)cc1)C2)Nc1ccccc1 (stereo not shown) [CBK059450],80.691

row,Compound,% of control remaining
1,CCCC1(C)NC(=O)N(Cc2coc(-c3cccs3)n2)C1=O (stereo not shown) [CBK305594],29.229
2,O=C(O)CC(c1ccncc1)c1c[nH]c2ccccc12 (stereo not shown) [CBK286913],107.243
3,O=[N+]([O-])c1ccc(N/N=C/c2cnn(-c3ccccc3)c2)cc1 [CBK018746],69.7712
4,O=C(NCCn1c(C(F)(F)F)cc(=O)c2cccc(F)c21)C1CC1 [CBK284807],119.435
5,COc1ccc(Cl)cc1S(=O)(=O)N1CCC(C(=O)O)CC1 [CBK269607],99.3483
6,CCOC(=O)Cc1csc(NS(=O)(=O)c2cc(C)c(Cl)cc2Cl)n1 [CBK012872],96.5964
7,CC(=O)Nc1cccc(-c2cncc(NCc3ccco3)n2)c1 [CBK065290],137.696
8,Cc1ccc(S(=O)(=O)Nc2ccccc2-c2nc3ccccc3c(=O)o2)cc1 [CBK087613],87.3317
9,O=c1[nH]c2ncc(-c3ccco3)nc2n1Cc1cccs1 [CBK064438],134.022
10,CC1=C[C@@H](CNC(=O)NC2CCCCC2)[C@H](C(C)C)C[C@H]1CC(=O)O [CBK289211],108.426
11,CN(C)CCN(C)c1nc(-c2ccc(Oc3ccccc3)cc2)cn2ccnc12 [CBK066469],149.335
12,CC1c2ccsc2CCN1S(C)(=O)=O (stereo not shown) [CBK023574],76.4178
13,Cc1ccc(OC(=O)CCC(=O)Nc2ccc(S(N)(=O)=O)cc2)cc1 [CBK264708],101.248
14,COCCN1CCN(c2nc(-c3ccncc3)nc3c2CCC3)CC1 [CBK306101],115.679
15,COc1ccc(-c2c3c(nc4sc(C#N)c(N)c24)CCCC3)cc1 [CBK270279],65.3144
16,O=C(N[C@H]1CCN2C(=O)c3cc(-c4cccs4)ccc3NC(=O)[C@H]12)c1cccs1 [CBK289336],93.5818
17,Cc1nc(-c2cccnc2)[nH]c(=O)c1CC(=O)N1CCN(C)CC1C (stereo not shown) [CBK304950],142.177
18,O=S(=O)(Nc1ncccn1)c1ccc(NC(=S)Nc2ccc3c(c2)OCO3)cc1 [CBK267046],25.5935
19,CCCCOc1ccc(-c2ccc(C#N)cc2)cc1 [CBK056958],60.8784
20,CN1CCC(N2CCN(C(=O)NCc3ccc4c(c3)OCO4)CC2)CC1 [CBK155885],98.9837
21,O=C1CN(C(=O)Nc2ccccc2Cl)CCN1 [CBK155862],93.8808

row,Compound,% of control remaining
1,O=C(CCCN1C(=O)c2cccc3cccc(c23)C1=O)N1CCN(Cc2ccc3c(c2)OCO3)CC1 [CBK074370],99.2638
2,Cc1ccc(S(=O)(=O)N(CCO)CC2CC2)c(Cl)c1 [CBK304885],60.7506
3,C[C@@H](Nc1nc(-c2cccc3cccnc23)cnc1N)c1ccccc1 [CBK063784],157.335
4,CCOCC(=O)N(C)C(CO)c1cc(OC)ccc1Br (stereo not shown) [CBK304722],42.1235
5,O=C1N=C(N2CCCCCC2)SC1CC(=O)N1CCCc2ccccc21 (stereo not shown) [CBK063336],71.805
6,CN1CCC(N(C)C(=O)NCC2COc3ccccc3O2)C1 (stereo not shown) [CBK155994],89.5307
7,Cn1c2c(c3ccccc31)CCOC21CCN(Cc2ccc(OC(F)F)cc2)CC1 [CBK039975],81.8503
8,O=C(O)CSC1=CC(=O)N(c2ccc(Br)cc2)C1=O [CBK287263],103.504
9,Cc1nn(C)c(C)c1CN(C)C(=O)CCC1CCCO1 (stereo not shown) [CBK283078],103.191
10,Cc1csc(CNCc2c(C)nn(C)c2N(C)C)n1 [CBK304804],48.7109
11,c1ccc(C(CC2CCCCC2)NCc2cccnc2)cc1 (stereo not shown) [CBK073816],115.258
12,O=C(CN1CCCC1)N1CCC(c2cccc(Cc3ccc(C(F)(F)F)cc3)n2)CC1 [CBK286215],89.0781
13,COCCN1CC(CNC(=O)Nc2cc(NC(C)=O)ccc2F)CC1=O (stereo not shown) [CBK304398],50.0064
14,CC(=O)Nc1cccc(-c2nccnc2NCC(c2cccnc2)N(C)C)c1 (stereo not shown) [CBK037998],112.361
15,Cn1cccc1C1(O)CCCC2CN(C(=O)c3ccco3)CC21 (stereo not shown) [CBK284509],106.387
16,CCCCc1ccc(NC(=S)NN2CCN(C)CC2)cc1 [CBK265741],114.373
17,COc1ccc(CC(=O)Nc2nnc(C)s2)cc1OC [CBK287359],68.5014
18,COc1ccc(CN2CCN(C(=O)c3cccs3)CC2)cc1OC [CBK074410],113.509
19,COc1cc2c(cc1CNS(=O)(=O)c1ccc3[nH]c(=O)[nH]c(=O)c3c1)CCC2 [CBK286396],76.6434

# — publication PMC12040169 (PLOS Biology, 2025)
